Sequences with one replicate were seen in a single cluster, so their values are uncertain.
System: ATP
Experiment: switch fluorescence ratio, 500 uM ATP over buffer (Cy3 cluster intensity, sum of 5 cycles each) (fold (ratio)); higher = stronger signal-on switching upon ATP binding; sequences stand for … in TCGTCGGCAGCGTCAGATGTGTATAAGAGACAGTTTTTTTTTTTTTTTTTTTTTTTTT…TC
Details: aptamer strand: ATP DNA aptamer (quencher-CACCTGGGGGAGTATTGCGGAGGAAGG + anchor), 100 nM annealed; ATP concentration: 500 uM; one replicate
Summary of the method: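 Between each of five buffer/ATP cycles, the flow-cell was stripped with NaOH and re-annealed. Each cycle imaged Cy3-labelled switching-strand clusters, annealed to 100 nM quencher-labelled ATP aptamer on a modified Illumina MiSeq flow-cell, first in selection buffer and then after 15 min with 500 uM ATP at 22 °C. The fluorescence ratio is summed target-cycle over summed buffer-cycle Cy3 intensity per cluster, averaged per switch-domain sequence, with clusters outside 100-1000 RFU excluded.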
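Further: ATP exposure 15 min at 22 °C before imaging.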

Sequence	switch fluorescence ratio
GGCCTTGGCT	1.03
CAGTCGTATT	1.05
AGGATCCTCA	1.04
CTGGTATTG	0.995
CCTGGTTAG	1.02
CAAAAGGCGG	1.01
TTATGGCGAC	0.999
TAGAGAGATG	0.977
AGTAAAAA	0.948
TTTCGCGGAG	1.03
CGCGTTAGTC	1.04
CACACAGGTG	5.04
TTGAAATGAA	0.999
GATTGGCTG	0.958
CGCGTAAGGG	1.03
GTATGGGACT	0.961
TGGTGTATAA	1.03
TGGTTTGACT	0.958
TACATGAAA	1.02
TGTGCTAACT	0.978
CGAGACGGG	1
ACCTCCTGGT	0.993
GGGACATACC	1.25

Sequence	switch fluorescence ratio
TATCGAGAGG	0.973
GCTGGTTTCT	1.03
CTAGCCCTCT	1.01
TGCGATCCA	1.16
ACGCCCGCCG	1.06
CGGTATTAAT	1.03
CGTTTCGGGG	0.962
TGAGTACTAT	1.01
TCCAGAATTC	0.981
TCAGAGTCTA	1.03
AGGGCTCGCT	1.01
GGAGAGATCG	0.937
ATGTATGTTT	0.921
ATAGTTCTGC	1.12
GGTGGTGGT	0.991
ATAGTTATCG	1.01
GTGGTTTAAG	0.987
TGTGACAATT	0.972
ATCACAAGGT	0.945
AGGACTAGAC	1.07
TCGGCACCCT	1.06
TTAGCACGC	1.09
TGTCCATGGT	1.02

Sequence	switch fluorescence ratio
CTTAAAATA	1.01
TGGCTGCTGC	0.998
GAATCGATTC	1.02
GTAACGGGGT	0.991
AGGGAACTTT	0.978
CTTATAAGTT	0.978
CGCCTGATCA	0.969
CGTGGATTGG	0.99
AATCTGAGGA	1.03
AGGCTGGGTG	1.13
TGAGCACTTT	0.997
CTGTACAACT	1.03
ATACATATCT	1
GAAACTGCGT	0.978
TATCGGTTTG	1
GAAAATCGGC	1
GGTTCTTTAT	0.949
GGTGCCATTA	1.02
CGTCTGAAAA	0.971
CGAGTTAAAC	1.11
CATAAATAGC	1.07
CAAGTGCGCG	0.972
GACAGAGTAT	1.08

Sequence	switch fluorescence ratio
GACGCTAGA	3.7
GCCCTGTAAT	1.04
GCTCTAACTA	1.05
AGAAAGCGC	1.03
AGTGACGGGT	1.05
TCCAGCCTGG	0.991
TGGCATACCT	1.17
CCGTTTCCTG	0.968
AAAGAGAAAG	0.959
GGACAAAGTG	0.996
GAACTATATC	1.02
GTTTGAACTC	1.02
AATTGGACTC	1
ATGAGGATTA	0.995
CGTAGAAGAG	1.05
TATCTCGGAA	1.11
CTACGGGGAT	1.08
ATATCATTAG	0.993
GCTATCAAAC	1.02
ATTGCTTAGC	0.978
GGAGTTGA	1.02
CGGATCATTG	0.977
AAATCGAAT	0.991

Sequence	switch fluorescence ratio
CCTGCGTACG	1.3
CAGAGCACTG	1.03
TGGGGAGAG	0.99
AGGGGTCTAT	0.977
CGAGGCATAG	3.6
GGGGAGGCTC	1.07
AGGGTGCTT	1.03
AGAGCCTATG	1.04
GCTCGGGAAC	1.18
CGGTACATCC	1.06
TTGGGATTAC	1.03
TGCTGGTGTC	0.941
GCTTCAATCG	1.04
AGACCAAGTG	0.972
CGTGTGAT	1.01
GTAGGGACCT	1.11
TAGATGAGGG	0.959
TTAGTGAAGA	0.973
GGCCCCGCCA	1.01
TGTGGAAGCA	1.02
AGTTCAGATA	0.983
TTATGATCAA	0.996
TACCACGCAT	1.52

Sequence	switch fluorescence ratio
AGAGAGGTGC	1.1
TGGATGGCAG	0.96
GGTTTTCAAT	1.01
GGTGACACAT	0.988
GCCTCATCTC	0.997
TTTTGGAGAC	0.975
CATTATCCC	0.974
TTAGAGTGCT	0.938
GATTTCGTAA	0.987
CGGCGAGGTA	0.98
ATTGGCGGAC	1.03
AAGGGGCAAC	0.972
CAACCGGTCC	1.37
TTGCCCCAAA	0.981
CAGTTAAATG	0.954
GCGCTAAATC	1.14
ACAGAAGAGT	0.976
ACGCACAATG	1.33
ATGCCAGC	0.988
AGCCATACTG	1.37
TTTAATATCA	1.03
TATTCTATCG	1.01
GAAACTCGCT	0.996

Sequence	switch fluorescence ratio
TCCCCGTGCG	1.12
GTGGATCCGC	1.62
TAGTGCGAGG	1.01
TGAGGAGAGT	0.973
ACGGTTGGAC	1.07
GGGCCGGCGC	0.975
TAGGGCGCTC	1
ATTTAGAAAA	0.995
CATTTGCCGG	0.958
ACAGTGTAAG	1.05
TACATGAGTC	1.01
TACCGGGGAC	1.1
ACGGATCGTC	0.961
GACGGATACT	1.66
TGATCCCGCT	1.01
ATTGTGTTAC	1.05
AACAGCTCGA	1.04
TACCAATGTG	1.15
CGCGGGCCGG	0.944
GATGATAGTA	1.03
